Results as given in US20230398178A1, “METHODS AND COMPOSITIONS FOR TREATING OR PREVENTING A VAGINAL INFECTION OF GARDNERELLA VAGINALIS” (Massachusetts Institute of Technology, priority 2022, published 2023).

Test system: End1 endocervical cells challenged with G. vaginalis 49145 or 14018
Conditions: End1 cells challenged with G. vaginalis 49145 or 14018, viability after 24 hours

## MUC5B: mucin glycoprotein, predominant in cervicovaginal fluid, purified from pooled human saliva and reconstituted into gels
  effect on endocervical cell death / killing, in words: higher survival rates for the endocervical cells
